Experimental data as given in paper PMC12627648.
No constants are given. Whether binding was seen depends on the method and setting. In cells and extracts the contact can be indirect. Some binding calls cover weakened binding; strength is not graded here. For some of these results: Sequences can lack the tags named with a protein. Blank lines part the entries; values can stand above or below the substance they belong to.

Amino acid sequences for entries named in this document (tags omitted).
UniProt P42224: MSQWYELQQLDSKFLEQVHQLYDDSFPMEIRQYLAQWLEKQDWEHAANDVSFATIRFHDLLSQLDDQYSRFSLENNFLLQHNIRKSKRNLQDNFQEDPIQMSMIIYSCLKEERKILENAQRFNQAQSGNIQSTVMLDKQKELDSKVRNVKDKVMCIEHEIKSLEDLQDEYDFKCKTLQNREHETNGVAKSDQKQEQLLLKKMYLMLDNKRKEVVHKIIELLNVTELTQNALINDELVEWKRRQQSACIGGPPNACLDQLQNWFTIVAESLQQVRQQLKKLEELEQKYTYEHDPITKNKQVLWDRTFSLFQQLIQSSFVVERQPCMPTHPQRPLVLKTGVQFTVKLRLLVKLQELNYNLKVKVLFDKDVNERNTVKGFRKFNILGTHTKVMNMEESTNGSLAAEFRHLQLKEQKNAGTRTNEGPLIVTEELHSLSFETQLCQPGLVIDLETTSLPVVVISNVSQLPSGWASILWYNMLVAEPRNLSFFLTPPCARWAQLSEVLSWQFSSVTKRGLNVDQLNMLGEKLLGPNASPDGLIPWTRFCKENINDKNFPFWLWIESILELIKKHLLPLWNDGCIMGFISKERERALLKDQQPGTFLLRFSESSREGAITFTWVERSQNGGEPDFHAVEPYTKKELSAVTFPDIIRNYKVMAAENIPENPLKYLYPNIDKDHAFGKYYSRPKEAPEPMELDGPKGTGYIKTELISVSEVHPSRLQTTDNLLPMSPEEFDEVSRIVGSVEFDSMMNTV
UniProt P19474: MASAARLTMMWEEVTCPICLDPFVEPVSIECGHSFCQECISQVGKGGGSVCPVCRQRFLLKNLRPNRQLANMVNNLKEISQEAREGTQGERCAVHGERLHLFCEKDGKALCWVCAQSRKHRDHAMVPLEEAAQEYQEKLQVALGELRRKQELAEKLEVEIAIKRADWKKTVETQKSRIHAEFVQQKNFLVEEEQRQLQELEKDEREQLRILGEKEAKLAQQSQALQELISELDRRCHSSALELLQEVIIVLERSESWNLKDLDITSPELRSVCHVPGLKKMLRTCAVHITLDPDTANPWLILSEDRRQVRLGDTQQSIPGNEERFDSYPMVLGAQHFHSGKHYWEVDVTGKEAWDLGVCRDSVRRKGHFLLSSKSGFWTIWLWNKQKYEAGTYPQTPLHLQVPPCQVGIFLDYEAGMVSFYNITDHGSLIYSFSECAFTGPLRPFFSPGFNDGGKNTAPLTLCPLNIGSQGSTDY

Assays:
GST-STAT1 = GST-STAT1 (UniProt P42224); experiment: pull-down; GST fusion proteins from E. coli BL21 (DE3), Pierce GST Protein Interaction Pull-Down Kit; the SYK-STAT1 pull-down with or without TREM2
HA-STAT1 (full length) [1] = target: HA-STAT1 (full length) (UniProt P42224); experiment: co-IP; HEK293T cells transfected with tagged TREM2, TRIM21, STAT1 (full length or truncation mutants) or SYK; increasing doses of MYC-TRIM21 in the presence of MG132 in one panel
HA-STAT1 (full length) [2] = target: HA-STAT1 (full length) (UniProt P42224); experiment: co-IP; sequential IP assays (two successive immunoprecipitations) of TREM2, TRIM21 and STAT1
Flag-TREM2 [3] = target: T1, Flag-TREM2 (UniProt Q9NZC2); experiment: as above
T1 sequence: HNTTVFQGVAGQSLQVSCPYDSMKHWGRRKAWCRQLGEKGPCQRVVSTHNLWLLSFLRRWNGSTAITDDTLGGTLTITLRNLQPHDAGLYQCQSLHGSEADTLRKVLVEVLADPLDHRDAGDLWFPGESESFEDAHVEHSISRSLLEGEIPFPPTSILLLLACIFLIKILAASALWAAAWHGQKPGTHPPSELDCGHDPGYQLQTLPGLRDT

Flag-TREM2 [4] = target: T1, Flag-TREM2; experiment: co-IP; HEK293T cells transfected with tagged TREM2, TRIM21, STAT1 (full length or truncation mutants) or SYK; increasing doses of MYC-TRIM21 in the presence of MG132 in one panel
[5] = target: T2, triggering receptor expressed on myeloid cells 2 (TREM2), endogenous in TAMs (human (endogenous in THP-1-induced TAMs)) (UniProt Q9NZC2); experiment: co-IP; endogenous proteins in lysates of THP-1-induced TAMs; antibody or IgG overnight at 4 °C, protein A/G magnetic beads, four washes; also in TREM2 overexpression and knockdown TAMs
T2 sequence: T1 sequence

binding (GST-STAT1): binds
Substance: Tripartite Motif Containing 21 (TRIM21) (partner of GST-STAT1 in the GST pull-down) (from UniProt P19474 1-475) (enzyme)

binding (HA-STAT1 (full length) [1]): binds
binding (HA-STAT1 (full length) [2]): binds
binding (Flag-TREM2 [3]): no binding
Substance: Myc-TRIM21 (from UniProt P19474 1-475) (enzyme)

binding (Flag-TREM2 [4]): binds
binding (Flag-TREM2 [3]): binds
Substance: HA-STAT1 (full length) (from UniProt P42224 1-750)

binding [5]: binds
Substance: signal transducer and activator of transcription 1 (STAT1), endogenous in TAMs (from UniProt P42224 1-750)
